In the supplement of paper PMC10126150:
Sequences with one replicate were seen in a single cluster, so their values are uncertain.

Test system: ATP
Assay: switch fluorescence ratio, 500 uM ATP over buffer (Cy3 cluster intensity, sum of 5 cycles each) (fold (ratio)); higher = stronger signal-on switching upon ATP binding; sequences stand for … in TCGTCGGCAGCGTCAGATGTGTATAAGAGACAGTTTTTTTTTTTTTTTTTTTTTTTTT…TC
Conditions: aptamer strand: ATP DNA aptamer (quencher-CACCTGGGGGAGTATTGCGGAGGAAGG + anchor), 100 nM annealed; ATP concentration: 500 uM; one replicate
Summary of the method: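 The fluorescence ratio divides summed target-cycle Cy3 intensity by summed buffer-cycle Cy3 intensity for each cluster and is averaged per switch-domain sequence. Cy3-labelled switching-strand clusters on a modified Illumina MiSeq flow-cell were annealed to 100 nM quencher-labelled ATP aptamer, then imaged in selection buffer and again after 15 min with 500 uM ATP at 22 °C. Five such cycles were run, with NaOH stripping and re-annealing between them, and clusters outside 100-1000 RFU were excluded.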
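Further: ATP exposure 15 min at 22 °C before imaging.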

Sequence | switch fluorescence ratio
TTGAGCATGT | 1.03
AAGAACTTTT | 0.945
CCACTAGCCA | 1.2
GTCGCTTCGG | 1
TGTATTAGGG | 0.987
CAGAGGCAAG | 1.98
GGAGTAACTA | 1.01
GACTGCGAGA | 1.1
GCCGTTTGTC | 1.03
TCGGCCCGT | 1.01
TTTTTCCCTC | 1.04
CTTATACCAG | 0.971
GTTACGCAGT | 1.07
GTGATCTGAA | 0.949
TCGACCGTAA | 2.27
CTTTAATATG | 1.01
TACTCAGCGG | 1.5
GTCATACGTG | 1.04
GCTTAGTATT | 1.02
AATGCCATAG | 1.02
CCCTGCCACC | 1.61
TCGCTGTTCA | 1.01
CCGAAACATG | 1.33

Sequence | switch fluorescence ratio
TTTAGGACGG | 1.03
ACTCGAAGCG | 0.983
TAATGACTAT | 1
GAGTCTTTTC | 1.01
TGCGGATAAG | 1.01
AACCCCTGTG | 1.31
TTAGTGTATG | 1.01
TGTGCATGAA | 0.978
AGACGCGAGT | 1.01
AGAGTACG | 0.978
CGTGCATGTT | 1.02
GAAAGCACGG | 1.14
TTTCACATAT | 1.03
TCTGTAGGAA | 1.11
GCCTTTACAC | 1.02
TAGGAGAACA | 0.985
GGACAATTAT | 0.97
ACGATTAATA | 1.05
ACATCGTAC | 1.18
TAACGCGACA | 1.22
TCGCATTCTC | 4.28
GTGCGGGTGG | 1.03
AGAGAAGCTA | 1.03

Sequence | switch fluorescence ratio
GTCCCTGGTC | 1.05
GAATATTCGT | 1.03
GAATACGCGC | 1.15
GAATTACTCA | 1.08
GTTATGATCC | 0.973
AGTTATGTGT | 0.976
ATAATCTCCG | 1.15
TATAGCTC | 1.02
TTTATTTTAG | 1.05
AATCATATTG | 0.971
TTACTCCACC | 1.18
GACCCGACCA | 1.17
CTAGTCTGGT | 0.955
AGGGAACCGG | 1.03
AGTGGACCTC | 1
GTAGGGGTAT | 0.969
GGAATTGGAG | 1.04
TGAGTTACGT | 0.992
TCTATATTCT | 1
AAGCAGCGCC | 1.02
AGTTTCGCAC | 1.04
GATCGGTGAG | 1.01
TTTATCCAGA | 1.01

Sequence | switch fluorescence ratio
CCGGTCTTCT | 1.06
TTGAGCCCCC | 1.06
CGAATTCCGT | 0.998
CGAAACATAT | 1.07
AATGAACTCC | 1.04
TTGCATATTA | 1.02
TCCGTGGTCG | 0.938
TGGGCATCGG | 0.973
TTTTGGACAA | 1
CTACCGCATG | 3.27
CGCCGGCGAT | 0.992
AGTTTCAGGG | 1.02
ACTTAGCCTT | 1.1
CATTCCTAGG | 1.05
TTCGCTGCCA | 1.02
TGGGTCCTCC | 1.01
TGTTGAAGTG | 0.957
CAGATAGCG | 0.995
AAGTTGAGAG | 0.96
CATGTAACCA | 1.04
ACAATCGTTC | 0.982
GATTGAGCAC | 1.02
AATGTCGGCA | 1.02

Sequence | switch fluorescence ratio
GGTACAGATA | 1.04
ATTTCGCCGG | 0.996
CGTATTATCC | 1.08
ATAAGGCTT | 1
GGAACAGCCA | 0.98
TTTTCGCAGA | 1.29
ATCATGGTAT | 0.98
CGCACATGTC | 1.76
ACTGAGTTCT | 1.05
TGTACCGCTT | 1.07
GTTCTT | 1.04
TGGACCGTTT | 1.01
TAAAGCCTAG | 1.04
CGTGAAAACA | 1.13
TGGGGAACGA | 1.04
ACAGTCACGG | 1.26
TAGCGACTAC | 3.15
AAGTGTCGCG | 1.03
TTGTCTCGTT | 0.984
GGGTCGCCTA | 0.992
ATCGTTAGGT | 0.994
GTTTCCTTCA | 1.2
GGGCTACTAC | 1.17

Sequence | switch fluorescence ratio
TAACCGATCG | 1.06
TAAGGCCCGA | 0.988
AAGACGGTCA | 0.988
ACATATGCAA | 1.16
CAGGTATGAC | 1.04
GGAGTTATTT | 0.962
CCAGTACTAT | 0.999
CACCCGGGAG | 0.944
TAAGGAAGTA | 1
TTATGAATTA | 1.03
GATTTGTCGA | 0.964
AGTGGGGCGA | 1.16
ATATTCACGA | 1.03
TCAACTGTT | 0.862
GCACTTCGTA | 0.986
AGGTGTAGTC | 1.04
ATGTGCATA | 1.03
TGGTCGGTTC | 0.982
ACGAAGGGGA | 1.03
AGTCAAGTTG | 0.949
GCTGATACCG | 1.17
TGGTTGTGGC | 0.974
CTCACATCGC | 1.1

Sequence | switch fluorescence ratio
CTTGAGGCAC | 0.965
CGGTAAACTT | 1.04
GCTTCAGAGA | 1.02
TACTTGAAGC | 0.983
ATGAGCTGCC | 1.1
CAGTTGTCCT | 0.998
AATGTGGAAA | 1.01
TTTGAGGCTA | 1
GCAGCTTTCC | 1.48
CAAGCGGTTT | 0.955
AGCTTGTTGA | 1.02
TCCATGGGGG | 1.02
GGTTACCGCA | 1.09
AGCTATGGTT | 1.02
TAATTATTTG | 0.993
CGGGTGGTCT | 0.957
GTTAGCCCTG | 1.03
GTGTGTAAAA | 0.987
TAACGACTCA | 1.04
